# Experimental data taken from paper PMC10928841, “Ames test study designs for nitrosamine mutagenicity testing: qualitative and quantitative analysis of key assay parameters” (Mutagenesis, 2023).
# Assays:
# E. coli WP2uvrA (pKM101) [1] = conditions: plate incorporation, S9 rat, up to 5000 µg/plate
# S. typhimurium TA100 = assay: Ames test, pre-incubation method, TA100; conditions: up to 5000 µg/plate
# S. typhimurium TA1535 = assay: Ames test, pre-incubation method, TA1535; conditions: S9 hamster, up to 5000 µg/plate
# E. coli WP2uvrA (pKM101) [2] = assay: Ames test, pre-incubation method, WP2uvrA (pKM101); conditions: up to 5000 µg/plate
# [3] = tested on: S. typhimurium TA98, TA100, TA1535, TA1537 and E. coli WP2uvrA pKM101; assay: Ames test, plate incorporation method, overall result of five strains; conditions: for Ames test Result: up to 5000 µg/plate
# [4] = tested on: S. typhimurium TA98, TA100, TA1535, TA1537 and E. coli WP2uvrA pKM101; assay: Ames test, pre-incubation method, overall result of five strains; conditions: for Ames test Result: up to 5000 µg/plate
smiles,measurement,setting,value
"CCN(C)N=O [NMEA, N-nitrosomethylethylamine]",Ames test strain WP2*,E. coli WP2uvrA (pKM101) [1]; vehicle methanol,"+ (positive for mutagenicity, if a biologically relevant increase in the mean number of revertant colonies above a threshold of 2-fold (TA98, TA100, WP2 uvrA))"
same,Ames test strain WP2*,E. coli WP2uvrA (pKM101) [1]; vehicle water,"+ (positive for mutagenicity, if a biologically relevant increase in the mean number of revertant colonies above a threshold of 2-fold (TA98, TA100, WP2 uvrA))"
same,Ames test strain TA100,"S. typhimurium TA100; S9 hamster, vehicle methanol","+ (positive for mutagenicity, if a biologically relevant increase in the mean number of revertant colonies above a threshold of 2-fold (TA98, TA100, WP2 uvrA))"
same,Ames test strain TA100,"S. typhimurium TA100; S9 hamster, vehicle water","+ (positive for mutagenicity, if a biologically relevant increase in the mean number of revertant colonies above a threshold of 2-fold (TA98, TA100, WP2 uvrA))"
same,Ames test strain TA100,"S. typhimurium TA100; S9 rat, vehicle methanol","+ (positive for mutagenicity, if a biologically relevant increase in the mean number of revertant colonies above a threshold of 2-fold (TA98, TA100, WP2 uvrA))"
same,Ames test strain TA1535,S. typhimurium TA1535; vehicle methanol,"+ (positive for mutagenicity, if a biologically relevant increase in the mean number of revertant colonies above a threshold of 2-fold (TA98, TA100, WP2 uvrA) or 3-fold (TA1535, TA1537))"
same,Ames test strain TA1535,S. typhimurium TA1535; vehicle water,"+ (positive for mutagenicity, if a biologically relevant increase in the mean number of revertant colonies above a threshold of 2-fold (TA98, TA100, WP2 uvrA) or 3-fold (TA1535, TA1537))"
same,Ames test strain WP2*,"E. coli WP2uvrA (pKM101) [2]; S9 hamster, vehicle methanol","+ (positive for mutagenicity, if a biologically relevant increase in the mean number of revertant colonies above a threshold of 2-fold (TA98, TA100, WP2 uvrA))"
same,Ames test strain WP2*,"E. coli WP2uvrA (pKM101) [2]; S9 hamster, vehicle water","+ (positive for mutagenicity, if a biologically relevant increase in the mean number of revertant colonies above a threshold of 2-fold (TA98, TA100, WP2 uvrA))"
same,Ames test strain WP2*,"E. coli WP2uvrA (pKM101) [2]; S9 rat, vehicle DMSO","+ (positive for mutagenicity, if a biologically relevant increase in the mean number of revertant colonies above a threshold of 2-fold (TA98, TA100, WP2 uvrA))"
same,Ames test strain WP2*,"E. coli WP2uvrA (pKM101) [2]; S9 rat, vehicle methanol","+ (positive for mutagenicity, if a biologically relevant increase in the mean number of revertant colonies above a threshold of 2-fold (TA98, TA100, WP2 uvrA))"
same,Ames test strain WP2*,"E. coli WP2uvrA (pKM101) [2]; S9 rat, vehicle water","+ (positive for mutagenicity, if a biologically relevant increase in the mean number of revertant colonies above a threshold of 2-fold (TA98, TA100, WP2 uvrA))"
same,Ames test Result,"[3]; S9 none, vehicle DMSO",Negative
same,Ames test Result,"[3]; S9 none, vehicle methanol",Negative
same,Ames test Result,"[3]; S9 none, vehicle water",Negative
same,Ames test Result,"[3]; S9 rat, vehicle DMSO",Negative
same,Ames test Result,"[3]; S9 rat, vehicle methanol",Positive
same,Ames test Result,"[3]; S9 rat, vehicle water",Positive
same,mutagenicity in any bacterial strain,"[3]; absence of S9-mix, water, methanol or DMSO as vehicle",not mutagenic
same,"Ames test outcome, OECD TG-471 compliant test with appropriate combination of assay parameters",[4]; overall conclusion,positive
same,Ames test Result,"[4]; pre-incubation, S9 hamster, vehicle methanol",Positive
same,Ames test Result,"[4]; pre-incubation, S9 hamster, vehicle water",Positive
same,Ames test Result,"[4]; pre-incubation, S9 rat, vehicle DMSO",Positive
same,Ames test Result,"[4]; pre-incubation, S9 rat, vehicle methanol",Positive
same,Ames test Result,"[4]; pre-incubation, S9 rat, vehicle water",Positive
same,fold-change increases in revertant colonies,"[4]; pre-incubation, rat liver S9-mix, irrespective of the vehicle used (water, DMSO, methanol)",2–4 fold

# Read-outs that look alike come from different tables or passages of the source.
